Assay [1] concerns the target T1, native CNNM3 (endogenous, human cell lines) (human (endogenous in HEK-293, HEK-293T, Hela, HAP1)) (UniProt Q8NE01).
T1 sequence: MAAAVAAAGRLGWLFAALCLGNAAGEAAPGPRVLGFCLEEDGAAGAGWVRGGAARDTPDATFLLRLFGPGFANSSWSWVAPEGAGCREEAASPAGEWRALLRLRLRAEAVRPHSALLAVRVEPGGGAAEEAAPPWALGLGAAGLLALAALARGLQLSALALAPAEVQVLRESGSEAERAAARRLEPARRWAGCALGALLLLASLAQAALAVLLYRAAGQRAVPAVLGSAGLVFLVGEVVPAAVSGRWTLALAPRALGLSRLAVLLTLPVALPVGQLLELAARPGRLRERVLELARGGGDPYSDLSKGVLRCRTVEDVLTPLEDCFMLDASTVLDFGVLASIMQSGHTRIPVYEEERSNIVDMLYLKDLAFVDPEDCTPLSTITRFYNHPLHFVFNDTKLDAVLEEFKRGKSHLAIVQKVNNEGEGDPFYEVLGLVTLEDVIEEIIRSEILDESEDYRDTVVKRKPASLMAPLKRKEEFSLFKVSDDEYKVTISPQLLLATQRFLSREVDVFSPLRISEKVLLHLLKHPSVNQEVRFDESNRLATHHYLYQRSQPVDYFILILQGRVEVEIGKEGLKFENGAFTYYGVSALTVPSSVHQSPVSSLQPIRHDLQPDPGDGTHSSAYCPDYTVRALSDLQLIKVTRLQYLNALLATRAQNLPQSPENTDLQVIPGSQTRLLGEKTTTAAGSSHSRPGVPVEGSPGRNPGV
Kind of assay: co-IP; immunoprecipitation of native CNNM3 or native CNNM4, blot for the other native isoform; anti-myc antibody as negative control; cells not named (S16 Fig E, F).

The chains behind the UniProt entries cited, without tags or fusion partners.
UniProt Q9NRU3: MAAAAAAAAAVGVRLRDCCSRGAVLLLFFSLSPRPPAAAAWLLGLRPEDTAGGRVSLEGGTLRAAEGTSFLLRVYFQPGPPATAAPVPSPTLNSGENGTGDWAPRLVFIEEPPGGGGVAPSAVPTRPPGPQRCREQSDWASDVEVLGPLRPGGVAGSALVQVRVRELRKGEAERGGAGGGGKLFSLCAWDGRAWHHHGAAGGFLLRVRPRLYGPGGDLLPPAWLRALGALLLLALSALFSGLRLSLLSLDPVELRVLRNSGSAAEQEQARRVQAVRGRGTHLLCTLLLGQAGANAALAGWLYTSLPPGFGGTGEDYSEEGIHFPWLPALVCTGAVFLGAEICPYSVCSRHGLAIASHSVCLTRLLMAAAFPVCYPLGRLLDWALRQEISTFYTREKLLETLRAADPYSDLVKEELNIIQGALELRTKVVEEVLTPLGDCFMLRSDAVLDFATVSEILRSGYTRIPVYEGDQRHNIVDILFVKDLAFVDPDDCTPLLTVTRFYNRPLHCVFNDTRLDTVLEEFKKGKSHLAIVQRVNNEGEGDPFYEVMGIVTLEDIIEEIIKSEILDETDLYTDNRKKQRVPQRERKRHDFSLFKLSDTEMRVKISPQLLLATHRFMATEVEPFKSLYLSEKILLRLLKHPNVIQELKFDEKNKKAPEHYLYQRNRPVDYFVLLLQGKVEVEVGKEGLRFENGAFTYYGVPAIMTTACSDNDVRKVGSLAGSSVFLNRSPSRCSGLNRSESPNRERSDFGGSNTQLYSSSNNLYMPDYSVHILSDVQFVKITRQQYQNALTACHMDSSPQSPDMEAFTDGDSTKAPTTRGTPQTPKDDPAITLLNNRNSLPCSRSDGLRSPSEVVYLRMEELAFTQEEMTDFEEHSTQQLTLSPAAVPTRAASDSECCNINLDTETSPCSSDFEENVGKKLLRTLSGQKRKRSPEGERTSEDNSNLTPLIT
UniProt Q923J1: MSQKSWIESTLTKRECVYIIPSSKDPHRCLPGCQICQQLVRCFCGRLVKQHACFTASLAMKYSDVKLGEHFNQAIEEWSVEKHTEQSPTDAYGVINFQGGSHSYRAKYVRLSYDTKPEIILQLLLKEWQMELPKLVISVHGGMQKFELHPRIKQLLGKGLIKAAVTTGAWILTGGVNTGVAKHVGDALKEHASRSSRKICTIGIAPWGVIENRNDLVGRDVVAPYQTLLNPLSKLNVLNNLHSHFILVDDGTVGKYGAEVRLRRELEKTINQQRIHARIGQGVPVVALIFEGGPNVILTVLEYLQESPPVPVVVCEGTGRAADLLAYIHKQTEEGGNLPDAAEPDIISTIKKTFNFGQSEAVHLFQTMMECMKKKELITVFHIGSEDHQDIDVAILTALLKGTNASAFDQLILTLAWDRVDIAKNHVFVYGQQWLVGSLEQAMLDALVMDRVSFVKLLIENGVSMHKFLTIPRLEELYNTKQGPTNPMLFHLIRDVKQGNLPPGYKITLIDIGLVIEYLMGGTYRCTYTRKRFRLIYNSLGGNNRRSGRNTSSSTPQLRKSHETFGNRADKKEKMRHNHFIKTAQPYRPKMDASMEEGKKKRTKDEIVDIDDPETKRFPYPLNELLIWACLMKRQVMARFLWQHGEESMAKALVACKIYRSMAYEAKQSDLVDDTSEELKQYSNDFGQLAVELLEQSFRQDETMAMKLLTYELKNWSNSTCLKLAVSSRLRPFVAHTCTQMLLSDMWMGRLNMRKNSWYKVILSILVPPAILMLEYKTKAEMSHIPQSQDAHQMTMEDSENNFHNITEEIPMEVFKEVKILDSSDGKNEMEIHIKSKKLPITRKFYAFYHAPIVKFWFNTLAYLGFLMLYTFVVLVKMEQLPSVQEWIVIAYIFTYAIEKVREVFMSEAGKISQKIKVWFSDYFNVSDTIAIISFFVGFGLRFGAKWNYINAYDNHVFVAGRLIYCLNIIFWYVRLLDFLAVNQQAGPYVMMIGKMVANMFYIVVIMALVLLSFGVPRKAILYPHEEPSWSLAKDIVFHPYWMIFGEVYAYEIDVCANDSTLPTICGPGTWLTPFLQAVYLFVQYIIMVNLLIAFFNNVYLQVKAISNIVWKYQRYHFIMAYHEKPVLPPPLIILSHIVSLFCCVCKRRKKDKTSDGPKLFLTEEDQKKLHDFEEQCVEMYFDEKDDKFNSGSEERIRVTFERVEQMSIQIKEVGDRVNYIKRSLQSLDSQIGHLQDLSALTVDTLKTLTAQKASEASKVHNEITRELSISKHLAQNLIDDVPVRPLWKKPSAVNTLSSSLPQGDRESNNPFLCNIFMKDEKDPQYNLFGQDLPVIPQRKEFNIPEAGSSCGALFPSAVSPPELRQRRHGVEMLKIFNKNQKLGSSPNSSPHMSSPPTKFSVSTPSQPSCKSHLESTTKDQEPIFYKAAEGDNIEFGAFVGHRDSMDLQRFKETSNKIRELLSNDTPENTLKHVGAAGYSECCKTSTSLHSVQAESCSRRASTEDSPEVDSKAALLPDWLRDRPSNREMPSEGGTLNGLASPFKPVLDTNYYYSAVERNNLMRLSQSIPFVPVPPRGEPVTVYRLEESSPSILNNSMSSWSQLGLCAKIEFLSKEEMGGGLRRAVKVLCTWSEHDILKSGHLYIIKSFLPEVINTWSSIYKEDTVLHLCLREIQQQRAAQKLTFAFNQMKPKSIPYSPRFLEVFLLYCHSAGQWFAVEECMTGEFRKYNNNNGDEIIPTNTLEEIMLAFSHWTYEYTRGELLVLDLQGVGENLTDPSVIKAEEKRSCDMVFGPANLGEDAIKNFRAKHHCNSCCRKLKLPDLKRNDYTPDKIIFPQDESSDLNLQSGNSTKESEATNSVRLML
UniProt O94759: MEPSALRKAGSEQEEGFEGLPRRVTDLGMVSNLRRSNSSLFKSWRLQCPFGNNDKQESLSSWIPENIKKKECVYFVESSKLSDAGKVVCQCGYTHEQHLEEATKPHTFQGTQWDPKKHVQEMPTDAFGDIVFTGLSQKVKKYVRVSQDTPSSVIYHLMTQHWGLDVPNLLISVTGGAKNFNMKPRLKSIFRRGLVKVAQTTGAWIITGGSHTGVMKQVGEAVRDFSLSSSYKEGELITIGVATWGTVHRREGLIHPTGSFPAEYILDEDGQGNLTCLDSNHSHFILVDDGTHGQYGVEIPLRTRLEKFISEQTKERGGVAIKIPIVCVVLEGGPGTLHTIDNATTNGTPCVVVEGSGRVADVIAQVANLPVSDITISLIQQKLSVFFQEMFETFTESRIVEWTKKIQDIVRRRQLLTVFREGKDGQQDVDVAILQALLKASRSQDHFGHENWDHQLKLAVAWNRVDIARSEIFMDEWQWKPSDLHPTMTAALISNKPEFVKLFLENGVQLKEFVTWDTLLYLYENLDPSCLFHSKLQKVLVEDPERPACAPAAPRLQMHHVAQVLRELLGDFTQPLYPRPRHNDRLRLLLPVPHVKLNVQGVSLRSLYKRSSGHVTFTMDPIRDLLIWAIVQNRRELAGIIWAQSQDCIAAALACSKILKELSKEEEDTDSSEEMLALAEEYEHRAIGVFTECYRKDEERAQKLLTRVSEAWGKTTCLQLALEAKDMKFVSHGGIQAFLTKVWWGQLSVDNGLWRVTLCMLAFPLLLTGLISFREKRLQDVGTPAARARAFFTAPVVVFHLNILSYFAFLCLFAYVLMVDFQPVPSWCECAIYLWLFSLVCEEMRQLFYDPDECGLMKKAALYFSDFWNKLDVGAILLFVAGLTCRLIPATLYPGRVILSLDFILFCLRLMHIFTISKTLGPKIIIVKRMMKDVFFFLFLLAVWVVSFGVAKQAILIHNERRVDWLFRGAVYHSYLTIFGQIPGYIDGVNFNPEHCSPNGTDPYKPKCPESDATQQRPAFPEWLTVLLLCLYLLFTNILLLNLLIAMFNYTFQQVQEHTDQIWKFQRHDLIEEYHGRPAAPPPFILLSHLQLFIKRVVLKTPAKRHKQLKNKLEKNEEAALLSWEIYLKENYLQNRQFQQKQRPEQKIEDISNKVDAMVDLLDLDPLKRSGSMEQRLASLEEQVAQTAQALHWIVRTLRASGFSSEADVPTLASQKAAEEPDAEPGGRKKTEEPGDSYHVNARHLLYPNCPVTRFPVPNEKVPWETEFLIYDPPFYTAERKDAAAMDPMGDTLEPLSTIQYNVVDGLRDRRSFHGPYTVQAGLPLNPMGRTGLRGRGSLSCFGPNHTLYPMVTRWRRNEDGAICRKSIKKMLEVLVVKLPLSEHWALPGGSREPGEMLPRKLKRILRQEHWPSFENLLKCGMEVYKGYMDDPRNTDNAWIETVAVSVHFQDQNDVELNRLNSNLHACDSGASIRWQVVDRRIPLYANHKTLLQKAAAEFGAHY
UniProt Q96QT4: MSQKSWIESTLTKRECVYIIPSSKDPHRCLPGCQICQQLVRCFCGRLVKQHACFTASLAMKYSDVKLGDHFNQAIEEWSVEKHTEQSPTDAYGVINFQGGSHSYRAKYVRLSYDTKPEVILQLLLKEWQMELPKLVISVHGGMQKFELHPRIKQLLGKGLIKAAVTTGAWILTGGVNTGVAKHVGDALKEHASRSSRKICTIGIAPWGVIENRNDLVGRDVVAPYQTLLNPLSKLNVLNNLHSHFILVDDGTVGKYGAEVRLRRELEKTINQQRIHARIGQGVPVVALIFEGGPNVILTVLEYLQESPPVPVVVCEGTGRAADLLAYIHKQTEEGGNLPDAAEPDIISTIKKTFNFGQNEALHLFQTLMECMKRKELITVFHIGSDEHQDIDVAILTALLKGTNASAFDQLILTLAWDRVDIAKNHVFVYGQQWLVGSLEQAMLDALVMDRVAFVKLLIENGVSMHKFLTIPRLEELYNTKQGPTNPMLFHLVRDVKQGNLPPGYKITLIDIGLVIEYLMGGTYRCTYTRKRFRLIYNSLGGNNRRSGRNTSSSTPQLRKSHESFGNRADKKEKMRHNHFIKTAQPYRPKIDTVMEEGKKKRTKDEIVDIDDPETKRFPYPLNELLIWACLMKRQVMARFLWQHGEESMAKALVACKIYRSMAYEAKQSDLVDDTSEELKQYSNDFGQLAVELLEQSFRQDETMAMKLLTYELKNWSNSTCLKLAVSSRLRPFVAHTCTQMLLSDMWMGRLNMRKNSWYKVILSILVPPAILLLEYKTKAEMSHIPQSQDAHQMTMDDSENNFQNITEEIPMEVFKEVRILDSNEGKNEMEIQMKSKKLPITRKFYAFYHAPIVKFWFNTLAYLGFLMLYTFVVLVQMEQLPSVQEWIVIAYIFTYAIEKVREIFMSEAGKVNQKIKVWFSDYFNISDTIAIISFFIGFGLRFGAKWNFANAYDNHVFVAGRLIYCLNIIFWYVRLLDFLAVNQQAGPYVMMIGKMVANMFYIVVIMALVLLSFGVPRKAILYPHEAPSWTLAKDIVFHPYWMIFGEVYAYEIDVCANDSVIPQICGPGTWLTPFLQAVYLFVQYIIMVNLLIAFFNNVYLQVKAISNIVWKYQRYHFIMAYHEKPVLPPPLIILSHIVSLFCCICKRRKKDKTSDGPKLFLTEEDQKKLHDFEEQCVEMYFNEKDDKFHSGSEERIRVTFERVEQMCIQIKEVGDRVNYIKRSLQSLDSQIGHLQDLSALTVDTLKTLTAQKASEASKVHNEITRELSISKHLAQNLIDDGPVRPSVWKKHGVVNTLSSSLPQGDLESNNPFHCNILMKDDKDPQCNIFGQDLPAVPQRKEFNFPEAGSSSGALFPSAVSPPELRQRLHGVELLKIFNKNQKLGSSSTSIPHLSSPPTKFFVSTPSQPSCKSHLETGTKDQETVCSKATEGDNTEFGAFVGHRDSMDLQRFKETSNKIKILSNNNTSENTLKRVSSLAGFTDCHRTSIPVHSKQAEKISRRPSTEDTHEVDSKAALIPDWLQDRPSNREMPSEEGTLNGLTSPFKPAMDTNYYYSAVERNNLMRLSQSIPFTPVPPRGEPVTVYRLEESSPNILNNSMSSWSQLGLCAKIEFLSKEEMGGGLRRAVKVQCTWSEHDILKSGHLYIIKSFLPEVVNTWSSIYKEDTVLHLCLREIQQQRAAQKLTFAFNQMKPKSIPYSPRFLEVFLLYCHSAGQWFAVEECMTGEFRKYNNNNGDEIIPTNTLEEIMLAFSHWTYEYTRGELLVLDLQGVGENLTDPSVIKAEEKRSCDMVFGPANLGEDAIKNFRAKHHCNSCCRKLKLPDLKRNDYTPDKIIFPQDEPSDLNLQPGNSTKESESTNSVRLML

For assay [2], the target named is FLAG-tagged human CNNM1 (pCMV-4A) (human) (UniProt Q9NRU3). Kind of assay: co-IP; FLAG-CNNM isoforms individually expressed in HEK-293T cells and immunoprecipitated, blots for native CNNM isoforms (S16 Fig A-D).
The target of assay [3] is T2, FLAG-tagged mouse CNNM2 (pCMV-4A) (mouse) (UniProt Q3TWN3).
T2 sequence: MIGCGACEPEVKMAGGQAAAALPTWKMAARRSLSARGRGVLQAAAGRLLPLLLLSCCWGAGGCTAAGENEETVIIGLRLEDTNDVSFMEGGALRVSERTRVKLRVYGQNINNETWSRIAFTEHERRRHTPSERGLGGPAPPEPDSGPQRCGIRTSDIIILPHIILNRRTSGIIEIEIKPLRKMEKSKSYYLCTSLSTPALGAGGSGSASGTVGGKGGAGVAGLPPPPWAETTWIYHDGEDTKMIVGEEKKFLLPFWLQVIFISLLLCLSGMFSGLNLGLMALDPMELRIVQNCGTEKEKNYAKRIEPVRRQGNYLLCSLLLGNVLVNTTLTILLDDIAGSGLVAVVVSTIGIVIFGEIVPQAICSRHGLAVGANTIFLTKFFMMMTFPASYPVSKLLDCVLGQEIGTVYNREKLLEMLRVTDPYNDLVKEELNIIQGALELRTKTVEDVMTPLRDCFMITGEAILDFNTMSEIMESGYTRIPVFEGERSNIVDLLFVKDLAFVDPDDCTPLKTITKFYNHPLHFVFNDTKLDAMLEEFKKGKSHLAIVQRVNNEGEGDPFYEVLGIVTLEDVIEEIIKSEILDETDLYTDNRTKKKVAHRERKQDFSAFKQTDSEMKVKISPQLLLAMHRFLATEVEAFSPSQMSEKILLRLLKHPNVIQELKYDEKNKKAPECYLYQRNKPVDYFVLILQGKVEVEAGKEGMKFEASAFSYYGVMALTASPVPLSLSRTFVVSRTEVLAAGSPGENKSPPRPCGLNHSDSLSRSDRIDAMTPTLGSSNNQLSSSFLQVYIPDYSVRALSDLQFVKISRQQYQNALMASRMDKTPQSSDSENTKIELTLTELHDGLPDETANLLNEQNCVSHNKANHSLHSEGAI
The description is as above.

The target of assay [4] is T3, FLAG-tagged human CNNM3 (pCMV-4A) (human) (UniProt Q8NE01).
T3 sequence: T1 sequence
The assay is described as above.

Assay [5] concerns the target HA-tagged TRPM7 (pcDNA5-FRT-TO-HA-TRPM7) (mouse) (UniProt Q923J1). Kind of assay: co-IP; HA-TRPM7 transiently transfected into Hela cells, immunoprecipitated with HA-agarose, blots for native CNNMs.
In assay [6] the target is FLAG-TRPM2 (UniProt O94759). The assay can be described thus: co-IP; overexpressed tagged channel immunoprecipitated from HEK-293 cells, blots for native CNNM3 and CNNM4 (Fig 1B); lysis buffer 50 mM TRIS (pH 7.4), 150 mM NaCl, 1% Igepal 630.
The target in assay [7] is HA-tagged TRPM7 (pcDNA5-FRT-TO-HA-TRPM7) (mouse) (UniProt Q923J1). Described as above.
The target in assay [8] is native TRPM7 of ZR-75-1 breast cancer cells (human (endogenous in ZR-75-1)) (UniProt Q96QT4). Kind of assay: co-IP; native TRPM7 immunoprecipitated overnight from ZR-75-1 cells with 2 μg Anti-TRPM7 antibody (Alomone Labs #ACC-047) bound to Protein A agarose, blot for native CNNM4.
Assay [9] concerns the target HA-tagged mouse TRPM7 expressed from the recombinant adenovirus pAd/CMV/V5-SR-TRPM7 (Ad-TRPM7-HA) (mouse) (UniProt Q923J1). The assay can be described thus: co-IP; HA-TRPM7 expressed in HAP1 cells by viral transduction (Ad-TRPM7-HA), immunoprecipitated with HA-agarose, blots for native CNNMs.

These are yes or no findings as the source states them, for the method shown. In cells and extracts the contact can be indirect. Some results given as binding are weak or reduced against the parent protein; the word gives no strength. For part of these data: Tags and fused reporters may be left off the sequences shown.

B1: native CNNM4 (endogenous, human cell lines) (protein, UniProt Q6P4Q7 1-775)
chain: MAPVGGGGRPVGGPARGRLLLAAPVLLVLLWALGARGQGSPQQGTIVGMRLASCNKSCGTNPDGIIFVSEGSTVNLRLYGYSLGNISSNLISFTEVDDAETLHKSTSCLELTKDLVVQQLVNVSRGNTSGVLVVLTKFLRRSESMKLYALCTRAQPDGPWLKWTDKDSLLFMVEEPGRFLPLWLHILLITVLLVLSGIFSGLNLGLMALDPMELRIVQNCGTEKERRYARKIEPIRRKGNYLLCSLLLGNVLVNTSLTILLDNLIGSGLMAVASSTIGIVIFGEILPQALCSRHGLAVGANTILLTKFFMLLTFPLSFPISKLLDFFLGQEIRTVYNREKLMEMLKVTEPYNDLVKEELNMIQGALELRTKTVEDIMTQLQDCFMIRSDAILDFNTMSEIMESGYTRIPVFEDEQSNIVDILYVKDLAFVDPDDCTPLKTITRFYNHPVHFVFHDTKLDAMLEEFKKGKSHLAIVQKVNNEGEGDPFYEVLGLVTLEDVIEEIIKSEILDESDMYTDNRSRKRVSEKNKRDFSAFKDADNELKVKISPQLLLAAHRFLATEVSQFSPSLISEKILLRLLKYPDVIQELKFDEHNKYYARHYLYTRNKPADYFILILQGKVEVEAGKENMKFETGAFSYYGTMALTSVPSDRSPAHPTPLSRSASLSYPDRTDVSTAATLAGSSNQFGSSVLGQYISDFSVRALVDLQYIKITRQQYQNGLLASRMENSPQFPIDGCTTHMENLAEKSELPVVDETTTLLNERNSLLHKASHENAI
Regarding B1, the binding result in assay [1] is on record as “binds”; in [2], “binds”; in [3], “no binding”; in [4], “binds”; in [5] it was “binds”; in [6], “no binding”. For the same molecule, the binding result was “binds” in [7], “binds” in assay [8] and “binds weakly” in assay [9].

Source of the values: PMC8726484.
